# Results: PubChem BioAssay AID2147 (National Center for Advancing Translational Sciences (NCATS), 2009)
# Screen size: about 230,000 compounds; about 3,600 (1.6%) were called active. This list was built around the results that the source calls inconclusive (neither active nor inactive); the mix of calls is not that of the screen. The call rests on the fitted dose curve; in most records, active means well fitted inhibition curve with a large enough effect (not every such curve was filed as active); inconclusive means small, poorly fitted or top-dose-only effect, or another doubt; inactive means no such curve, though single readings can be large or run the other way. Where the call is inconclusive, the potency comes from a doubtful curve fit. Where a SMILES comes first, the peptide text is derived from it. Side-chain parts run from the residue outwards. [ ]: non-standard residue; d: D form. The star is where a group is joined. X1 = CCC(C)C(N)C1=NC(C(=O)*)CS1; Orn = NCCC[CH](N)C(=O)O
# Target: Lysine-specific demethylase 4E (Homo sapiens) (UniProt B2RXH2)
# Chain of UniProt B2RXH2 (B2RXH2 whole entry, looked up, the tested form may be a part): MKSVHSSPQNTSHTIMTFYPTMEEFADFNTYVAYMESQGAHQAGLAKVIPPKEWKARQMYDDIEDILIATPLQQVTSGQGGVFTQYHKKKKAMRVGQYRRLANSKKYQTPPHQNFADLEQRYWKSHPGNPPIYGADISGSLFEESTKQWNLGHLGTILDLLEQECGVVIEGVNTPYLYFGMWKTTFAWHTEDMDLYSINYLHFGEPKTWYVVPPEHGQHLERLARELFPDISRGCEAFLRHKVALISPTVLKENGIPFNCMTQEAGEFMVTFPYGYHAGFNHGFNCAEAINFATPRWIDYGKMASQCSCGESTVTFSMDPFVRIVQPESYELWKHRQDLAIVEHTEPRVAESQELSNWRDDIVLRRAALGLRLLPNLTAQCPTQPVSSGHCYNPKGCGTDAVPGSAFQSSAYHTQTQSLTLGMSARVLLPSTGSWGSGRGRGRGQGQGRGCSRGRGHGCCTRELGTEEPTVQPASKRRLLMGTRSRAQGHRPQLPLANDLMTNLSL
# Assay: qHTS Assay for Inhibitors of Human Jumonji Domain Containing 2E (JMJD2E)
# Conditions: JMJD2E catalytic domain, FDH-coupled NADH fluorescence (FDH is formaldehyde dehydrogenase); series mostly up to 57.1 µM; activity change, negative = inhibition: at the top concentration
# Further: nearly all actives have a fitted effect of over 50% in size.
# Potency means the concentration at half of the fitted maximal effect; tags describe the fitted curve by direction and shape.
# 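Wherever activity change, negative = inhibition is given: 0% = wells with enzyme and -100% = buffer wells without enzyme.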
Compound,Potency,"activity change, negative = inhibition"
Nc1ccc2nc3c(=O)n(CCc4ccccc4)c(=O)[nH]c3nc2c1,active: 1.78 µM,
O=C1c2ccccc2-c2onc3ccc(NCCCn4ccnc4)c1c23,,inactive: 1.91%
O=C(O)c1cccc(N2C(=O)c3cccc4c(Cl)ccc(c34)C2=O)c1,"inconclusive: 6.31 µM [inhibitor, single point]",
O=C(N/N=C/c1ccc(N2CCOCC2)o1)c1cccc(C(F)(F)F)c1,,inactive: -21.3%
N#Cc1c(/N=C\c2ccc(O)c([N+](=O)[O-])c2)sc2c1CCCC2,"inconclusive: 3.16 µM [inhibitor, partial curve, poor fit]",
Cc1coc2c(O)cc3c(c12)OC1(N2CCCCC2)C(=O)NCCCC31 (configuration not stated),"inconclusive: 39.8 µM [inhibitor, single point]",
Oc1ccc(Br)cc1C=Nc1ccc2c3c(cccc13)CC2,"inconclusive: 11.2 µM [inhibitor, partial curve]",
O=C(CC12CC3CC(CC(C3)C1)C2)NCc1ccncc1,,inactive: -8.25%
Cc1ccccc1NC(=S)Nc1cccc2cnccc12,,inactive: -15.5%
O=c1[nH]c2ccccc2c2nc3ccccn3c12,"inconclusive: 28.2 µM [inhibitor, single point]",
CC1=CC(C)(C)[N+](C)(C)c2ccc(C)cc21,"inconclusive: 12.6 µM [inhibitor, partial curve]",
O=C(/C=C/c1ccc2ccccc2n1)c1cc(Cl)ccc1O,"inconclusive: 28.2 µM [inhibitor, partial curve]",
CCC(C)C(N)C1=NC(C(=O)NC(CC(C)C)C(=O)NC(CCC(=O)O)C(=O)NC(C(=O)NCCCCC2NC(=O)C(CC(N)=O)NC(=O)C(CC(=O)O)NC(=O)C(Cc3cnc[nH]3)NC(=O)C(Cc3ccccc3)NC(=O)C(C(C)CC)NC(=O)C(CCCN)NC2=O)C(C)CC)CS1 (stereo not drawn) (cyclo(DNK([Ile-Glu-Leu-X1])[Orn]IFH); configuration not given here),"inconclusive: 14.1 µM [inhibitor, partial curve]",
Cc1sc2c(=O)n3c(nc2c1C(=O)NC1CCCCC1)CCCCC3,,inactive: -1.48%
NC(=S)N/N=C/c1ccc(-c2ccccc2)o1,"inconclusive: 39.8 µM [inhibitor, single point]",
Cc1nc2sc3c(O)cc(=O)[nH]c3c2c(C)c1C,"inconclusive: 35.5 µM [inhibitor, single point]",
Cc1cc(Cl)ccc1OCC(=O)NNC(=O)c1cnccn1,"inconclusive: 39.8 µM [inhibitor, single point]",
CN(C)CC[C@@H](c1ccc(Br)cc1)c1ccccn1,,inactive: 0.943%
O=C(CN1/C(=C(/O)c2ccccc2)C(=O)c2ccccc2S1(=O)=O)c1ccccc1,"inconclusive: 35.5 µM [inhibitor, single point]",
CCCC/C(O)=N\S(=O)(=O)c1ccc(N=NN(C)C)cc1,active: 8.91 µM,
CC1CN(c2cc3nccnc3cc2F)CC(C)O1 (configuration not stated),"inconclusive: 39.8 µM [inhibitor, single point]",

Compound,Potency,"activity change, negative = inhibition"
Cc1c(CCC(C)C)c(=O)n2c([nH]c3ccccc32)c1C#N,"inconclusive: 3.16 µM [inhibitor, full curve]",
Clc1ccc2c(c1)[C@H]1OCC[C@H]1[C@@H](c1ccco1)N2,"inconclusive: 25.1 µM [inhibitor, partial curve]",
O=C(CSc1nc2ccccc2o1)N/N=C/c1ccccc1,,inactive: 10.3%
Cc1sc2ncnc(Sc3ccccc3C(=O)Nc3ccccc3Cl)c2c1C,"inconclusive: 39.8 µM [inhibitor, single point]",
Cc1ccc(-c2cc(-c3ccc4c(c3)OCO4)c(C#N)c(N)n2)o1,"inconclusive: 14.1 µM [inhibitor, partial curve]",
CCCCCn1c(=O)[nH]c2cc(C(=O)NCc3ccco3)ccc2c1=O,"inconclusive: 28.2 µM [inhibitor, single point]",
Cc1cc(N=Nc2ccccc2C(=O)O)c(C)c(C)c1O,,inactive: -13.2%
CCOC(=O)C(=CNc1cc(C)nn1-c1ccc(Cl)cc1)C(=O)OCC,"inconclusive: 35.5 µM [inhibitor, single point]",
Cc1cc(C)c2c(=O)n(CC(=O)N3CCC(N4CCCCC4)CC3)sc2n1,"inconclusive: 28.2 µM [inhibitor, single point]",
COc1cc(C(=O)NCc2cn3ccccc3n2)cc(OC)c1OC,"inconclusive: 35.5 µM [inhibitor, single point]",
O=C(O)CCC1OC(=O)C(O)=C1c1ccccc1 (configuration not stated),"inconclusive: 39.8 µM [inhibitor, single point]",
CCc1ccccc1NC(=O)CSc1nnc([C@@H](N)Cc2ccccc2)o1,"inconclusive: 39.8 µM [inhibitor, single point]",
O=C(N/N=C/c1cc([N+](=O)[O-])ccc1O)/C(=C\c1cccs1)NC(=O)c1ccccc1,"inconclusive: 35.5 µM [inhibitor, single point]",
CCCc1[nH]nc2c1C(c1ccc(OC)c(Cn3nc(C)c(Br)c3C)c1)C(C#N)=C(N)O2 (configuration not stated),"inconclusive: 28.2 µM [inhibitor, single point]",
Cc1cccc(Nc2cc(C)c3c(O)cccc3n2)c1C,"inconclusive: 31.6 µM [inhibitor, partial curve]",
O=C(Nc1ccc(-c2noc(CCc3ccccc3)n2)cc1)c1cccnc1,"inconclusive: 35.5 µM [inhibitor, single point]",
Cc1cc2c(c(=O)o1)C1(C(=O)N(CC(=O)O)c3ccccc31)C(C#N)=C(N)O2 (configuration not stated),"inconclusive: 35.5 µM [inhibitor, single point]",
Cc1cccc(S(=O)(=O)Nc2nc3ccccc3nc2NCC2CCCO2)c1 (configuration not stated),"inconclusive: 35.5 µM [inhibitor, partial curve]",
O=C(Nc1cc(S(=O)(=O)N2CCOCC2)ccc1N1CCCC1)C1COc2ccccc2O1 (configuration not stated),"inconclusive: 39.8 µM [inhibitor, single point]",
CCOC(=O)N1CCN(S(=O)(=O)c2ccc(OCC(=O)OC)c(C)c2)CC1,,inactive: 1.83%
CCN(CC)c1nc(C)c(C(C)=O)cc1C#N,"inconclusive: 28.2 µM [inhibitor, single point]",
